From the supplement of paper PMC8748497
This is one part of the list.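 The calls were made as follows: active = GRHL reporter fold change of at least 2 over DMSO at 10 µM; inactive = below 2-fold.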 Many values rest on one well or one pass, so single values are uncertain.

Test system: HEK293 GRHL-luciferase reporter
Experiment: GRHL luciferase reporter activity, fold change over DMSO control; higher = stronger GRHL reporter activation
Details: 10 µM; 24 h
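Also: stable HEK293 line carrying repeated GRHL consensus sites upstream of a minimal promoter driving luciferase, luminescence read 24 h post-treatment, normalized to 0.5% DMSO vehicle wells.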

Row | SMILES | GRHL luciferase reporter activity
1 | OC[C@H]1O[C@@H](O[C@@H]2[C@@H](CO)OC(O)(CO)[C@H]2O)[C@H](O)[C@@H](O)[C@H]1O (mixture of isomers) | inactive: 0.893
2 | COc1cc2c(cc1OC)C1C(=O)c3c(O)cc4c(c3OC1CO2)C=CC(C)(C)O4 (stereo not drawn) [alpha-TOXICAROL (dl)] | active: 8.62
3 | CC(=O)Oc1ccc(O)cc1 | inactive: 0.0629
4 | Oc1ccc(O)cc1 | inactive: 0.981
5 | CC(CN1c2ccccc2Sc2ccccc21)N(C)C (stereo not given) | inactive: 0.663
6 | Fc1ccc(C(c2ccc(F)cc2)N2CCN(C/C=C/c3ccccc3)CC2)cc1 | inactive: 0.873
7 | CN(C)CCOC(=O)C(c1ccccc1)C1(O)CCCC1 (stereo not given) | inactive: 0.848
8 | C[C@@H]1CC[C@@]2(OC1)O[C@H]1C[C@H]3[C@@H]4CC=C5C[C@@H](O)CC[C@]5(C)[C@H]4CC[C@]3(C)[C@H]1[C@@H]2C | inactive: 0.958
9 | COc1ccc2[nH]c([S@@+]([O-])Cc3ncc(C)c(OC)c3C)nc2c1 | inactive: 1.17
10 | Clc1ccc(COC(Cn2ccnc2)c2ccc(Cl)cc2Cl)c(Cl)c1 (stereo not given) | inactive: 1.72
11 | C=Cc1c(C)c2cc3[nH]c(cc4nc(cc5nc(cc1[nH]2)C(C)=C5CCC(=O)O)C(CCC(=O)O)=C4C)c(C)c3C=C | inactive: 1.24
12 | NCCC(=O)N[C@@H](Cc1c[nH]cn1)C(=O)O | inactive: 0.918
13 | CC1=CC(=O)c2ccccc2C1=O | active: 35.1
14 | NC12CC3CC(CC(C3)C1)C2 | inactive: 0.907
15 | CC(=O)Nc1ccc(S(=O)(=O)c2ccc(NC(C)=O)cc2)cc1 | inactive: 1.14
